Experimental data: US20250243260A1 (ALPINE IMMUNE SCIENCES, published 2025)
Substitutions are numbered along the chain they refer to. Names may count otherwise. Each block holds one binder with its values, some of them ahead of it.

What was measured:
[1] = target: T1, human CTLA-4 on CHO cells (human, UniProt P16410 36-223); assay: flow cytometry, CHO/CTLA-4 cells
T1 construct: whole, on cells; also called CHO/CTLA-4
Method: (§1) Binding affinity to CD28 was determined using primary human T cells which endogenously express CD28. Binding to PD-L1 was determined using SCC152 cells transduced with human PD-L1. Binding to CTLA-4 was measured using Chinese hamster ovary (CHO) cells stably transduced to express human CTLA-4.
(§2) For staining and analysis by flow cytometry, 75,000 human T cells, SCC152/PD-L1 cells, or CHO/CTLA-4 cells were plated in 96-well round-bottom plates. Cells were spun down and resuspended in staining buffer (PBS (phosphate buffered saline), 1% BSA (bovine serum albumin), 1 mM EDTA, and 0.1% sodium azide) for 20 minutes to block non-specific binding. Afterwards, cells were centrifuged, stain buffer aspirated, and then resuspended in 50 μL of a 1:5 serial dilution of each CD80-Fc candidate variant starting at 100 nM ending at 0.8 nM. Primary staining was performed on ice for 60 minutes, before washing cells in […] staining buffer three times. PE-conjugated anti-human Fc (Jackson ImmunoResearch, USA) was diluted 1:250 in 50 μL staining buffer and added to cells and incubated another 30 minutes at 4° C. Cells were washed two times in 150 μL stain buffer and then fixed in 2% formaldehyde/PBS for 5 minutes at room temperature. Samples were analyzed CytoFLEX LX flow cytometer (Beckman Coulter, USA). Median Fluorescence Intensity (MFI) was calculated for each cell type using the CytExpert software from Beckman Coulter.
(§3) Binding assays were carried out to assess the specificity and affinity of multivalent proteins to cell-expressed CTLA-4, CD28, and PD-L1 counter structures.

[2] = target: T2, human CD28 on cells (human, UniProt P10747 19-220); assay: cell-based or functional assay
[3] = target: T2, human CD28 on cells; assay: flow cytometry, primary human T cells
Method: as §1, §2, §3

[4] = target: T3, human PD-L1 (human, UniProt Q9NZQ7); assay: flow cytometry, SCC152 cells transduced with human PD-L1, anti-human Fc detection
T3 construct: whole, on cells
Method: as §1, §2, §3

[5] = target: T4, rhu PD-L1 (human, UniProt Q9NZQ7 partial chain, limits assumed); assay: SPR, rhu PD-L1 analyte, 1:1 model
T4 construct: also called PD-L1 (SPR analyte)

[6] = target: T5, rhu CD28 (human, UniProt P10747 19-152, limits assumed); assay: SPR, rhu CD28 analyte, 1:1 model
T5 construct: also called CD28 (SPR analyte)

[7] = target: T4, rhu PD-L1; assay: SPR (Biacore), captured CD80-Fc, PD-L1 analyte
T4 sequence (Q9NZQ7 19-238 limits assumed): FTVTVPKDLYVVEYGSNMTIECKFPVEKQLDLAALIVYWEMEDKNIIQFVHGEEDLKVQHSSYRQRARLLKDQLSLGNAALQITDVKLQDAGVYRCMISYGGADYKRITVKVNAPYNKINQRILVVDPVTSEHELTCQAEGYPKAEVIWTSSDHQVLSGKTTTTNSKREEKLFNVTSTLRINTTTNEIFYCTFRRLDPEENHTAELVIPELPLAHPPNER

Sequence of human PD-L1 (Q9NZQ7 19-290): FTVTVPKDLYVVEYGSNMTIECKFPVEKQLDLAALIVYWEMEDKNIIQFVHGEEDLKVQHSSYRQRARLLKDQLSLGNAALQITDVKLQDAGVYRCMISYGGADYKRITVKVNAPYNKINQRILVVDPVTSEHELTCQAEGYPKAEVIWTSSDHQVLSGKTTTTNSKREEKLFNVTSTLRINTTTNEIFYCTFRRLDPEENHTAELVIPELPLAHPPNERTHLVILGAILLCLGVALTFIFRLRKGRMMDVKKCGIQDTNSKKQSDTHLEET
T1 sequence (P16410 36-223): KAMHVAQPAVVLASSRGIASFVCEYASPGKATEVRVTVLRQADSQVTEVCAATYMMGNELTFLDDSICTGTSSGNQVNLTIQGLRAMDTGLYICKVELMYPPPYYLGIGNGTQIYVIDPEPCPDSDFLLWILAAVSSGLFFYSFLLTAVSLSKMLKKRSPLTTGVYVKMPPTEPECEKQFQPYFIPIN

B3: CD80_185-Fc (Fc fusion)
chain: VIHVTKEVKEYATLSCGHNVSVEELAQYRIYWQKEKKMVLTMMSGDLNIWPEYKNRTIFDITNNLSIVILALRPSDEGTYECVVLKYEKDAFKREHLAEVTLSVKADGSGGGGS[omitted - human IgG4 Fc with S228P (EU numbers)]
notes: Variant CD80 IgV-GSGGGGS-human IgG4 Fc (S228P); also called V11Y, T28Y, M47L
Kd [5]: 73.5 nM | koff [5]: 0.00355 s⁻¹ | kon [5]: 48400 M⁻¹ s⁻¹ | Kd [6]: 31.7 nM | koff [6]: 0.00205 s⁻¹ | kon [6]: 64400 M⁻¹ s⁻¹ | Complex half-life [7]: 50 s | koff [7]: 0.014 s⁻¹

B5: CD80_180-Fc (Fc fusion)
chain: B3 chain with E10G, Y11W
notes: Variant CD80 IgV-GSGGGGS-human IgG4 Fc (S228P); also called E10G, V11W, T28Y, M47L
Kd [5]: 680 nM | koff [5]: 0.00563 s⁻¹ | kon [5]: 8200 M⁻¹ s⁻¹ | Kd [6]: 96 nM | koff [6]: 0.00616 s⁻¹ | kon [6]: 64100 M⁻¹ s⁻¹ | Complex half-life [7]: 50.6 s

B6: CD80_240-Fc (Fc fusion)
chain: B3 chain with D46E, L47V, V68M
notes: Variant CD80 IgV-GSGGGGS-human IgG4 Fc (S228P); also called V11Y, T28Y, D46E, M47V, V68M
Complex half-life [7]: 41.4 s | koff [7]: 0.017 s⁻¹

Other lines, results leading:

Anti-Human Fc (MFI) at 0.8 nM [1]: 187000 MFI | Anti-Human Fc (MFI) at 4 nM [1]: 283000 MFI | Anti-Human Fc (MFI) at 20 nM [1]: 292000 MFI | Anti-Human Fc (MFI) at 100 nM [1]: 284000 MFI | fold change vs WT CD80 @20 nM [1]: 0.35 fold | Fold Increase over WT at 50 nM [2]: 5.4 fold | Rel. Luminescence Units (RLU) at 2 nM, K562/OKT3/PD-L1 + Jurkat/IL-2 reporter [2]: 10600 RLU | Rel. Luminescence Units (RLU) at 10 nM, K562/OKT3/PD-L1 + Jurkat/IL-2 reporter [2]: 12400 RLU | Rel. Luminescence Units (RLU) at 50 nM, K562/OKT3/PD-L1 + Jurkat/IL-2 reporter [2]: 13200 RLU | Anti-Human Fc (MFI) at 0.8 nM [3]: 329 MFI | Anti-Human Fc (MFI) at 4 nM [3]: 496 MFI | Anti-Human Fc (MFI) at 20 nM [3]: 844 MFI | Anti-Human Fc (MFI) at 100 nM [3]: 1470 MFI | fold change vs WT CD80 @20 nM [3]: 4.7 fold
B1: CD80-Fc-CD80_336 (Fc fusion)
chain: VIHVTKEVKGWATLSCGHNVSVEELAQYRIYWQKEKKMVLTMMSGDLNIWPEYKNRTIFDITNNLSIVILALRPSDEGTYECVVLKYEKDAFKREHLAEVTLSVKADGSGGGGS[omitted - human IgG4 Fc with S228P (EU numbers)]GGGGSGGGGSGGGGSVIHVTKEVKGWATLSCGYNVSVEELAQYRIYWQKEKKMVLTMMSGDLNIWPEYKNRTIFDITNNLSIVILALRPSDEGTYECVVLKYEKDAFKREHLAEVTLSVKAD
notes: Tetravalent after dimerization of the Fc chains; also called multivalent CD80_180 E10G/V11W/T28Y/M47L barbell

Anti-Human Fc (MFI) at 0.8 nM [4]: 3800 MFI | Anti-Human Fc (MFI) at 4 nM [4]: 5750 MFI | Anti-Human Fc (MFI) at 20 nM [4]: 7000 MFI | Anti-Human Fc (MFI) at 100 nM [4]: 8450 MFI
B2: CD80-Fc-CD80_336 (CD80_180 E10G/V11W/T28Y/M47L) (Fc fusion)
chain: B1 chain
notes: tetravalent after Fc dimerization

Complex half-life [7]: 93.5 s | koff [7]: 0.007 s⁻¹
B4: CD80_183-Fc (Fc fusion)
chain: B3 chain with A71G, Y87R
notes: Variant CD80 IgV-GSGGGGS-human IgG4 Fc (S228P); also called V11Y, T28Y, M47L, A71G, Y87R

Complex half-life [7]: 50.4 s | koff [7]: 0.014 s⁻¹
B7: CD80_197-Fc (Fc fusion)
chain: B3 chain with Y28T, E35D, L47M, Y87Q, T101R
notes: Variant CD80 IgV-GSGGGGS-human IgG4 Fc (S228P); also called V11Y, E35D, Y87Q, T101R
